This series deals with ATP. Kind of series: switch fluorescence ratio, 500 uM ATP over buffer (Cy3 cluster intensity, sum of 5 cycles each) (fold (ratio)); higher = stronger signal-on switching upon ATP binding; sequences stand for … in TCGTCGGCAGCGTCAGATGTGTATAAGAGACAGTTTTTTTTTTTTTTTTTTTTTTTTT…TC. Particulars: aptamer strand: ATP DNA aptamer (quencher-CACCTGGGGGAGTATTGCGGAGGAAGG + anchor), 100 nM annealed; ATP concentration: 500 uM; one replicate. In outline: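 Imaging in selection buffer was followed by imaging after 15 min with 500 uM ATP at 22 °C, for Cy3-labelled switching-strand clusters annealed to 100 nM quencher-labelled ATP aptamer on a modified Illumina MiSeq flow-cell. Five of these buffer/ATP cycles ran, separated by NaOH stripping and re-annealing. The fluorescence ratio per cluster is summed target-cycle over summed buffer-cycle Cy3 intensity, averaged per switch-domain sequence; clusters outside 100-1000 RFU were removed.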

Values marked as one replicate rest on one cluster of the flow cell; about a third of the high ones do not repeat.

The text below walks through data of the supplement of paper PMC10126150.
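Also: ATP exposure 15 min at 22 °C before imaging.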

For the sequence ATTAAACTTA, the switch fluorescence ratio is 1.01.
As for ACGAGAAGGC, the switch fluorescence ratio amounted to 1.02.
The same measure for TGTTAGTATA: 1.02; for ACGTACGGCG: 1.19; for CCTAATTATT: 1.01.
To ATCGCCC belongs 1; to TACCACATTT, 1.02; to GGGAGGCTGG, 1.06.
The same measure for GCGAAGAGTC: 1.01.
Turning to ATGTTGACAT, the switch fluorescence ratio worked out at 1.01.
To CGCATCCGCC belongs 1.73.
To TTAAGTGGCA belongs 0.994; to CGATCATATG, 0.986; to GTGCTATTTT, 0.97.
As for ACATGTGGGC, the switch fluorescence ratio is 0.986.
ATAGTAAATA: the switch fluorescence ratio was 1.01.
To CTCTGTACGT belongs 1.05.
To CGGGCTGTAA belongs 0.999; to GGACTGTACG, 1.18.
The same measure for GCCCGGAGAT: 1.04.
Consider GGTGGTGTC, for which the switch fluorescence ratio turned out to be 0.993.
On to CAAGGCGGCG, for which the switch fluorescence ratio turned out to be 1.
As to CATATTGCGA, the switch fluorescence ratio amounted to 1.07.
For the sequence TATGAAGATT, the switch fluorescence ratio is 1.01.
To AGTCGCCGAT belongs 0.997; to ACCAAAACCG, 1.1.
Turning to AAGAGTTACA, the switch fluorescence ratio is 1.02.
The same measure for CTCCGGGAG: 1.35.
To GCGGGTGATG belongs 1.01; to ATACCGCTT, 1.63.
Regarding GGATAGCACG, the switch fluorescence ratio came to 1.01.
As for ACCCAGTTTT, the switch fluorescence ratio stood at 1.09.
As to TGCGTCCCCG, the switch fluorescence ratio amounted to 0.991.
For the sequence CAGTAGGCG, the switch fluorescence ratio worked out at 0.99.
With GGAAAAATAA, the switch fluorescence ratio is 0.989.
On to AACTTGTTCC, for which the switch fluorescence ratio was determined as 1.06.
To CAGCGCTGGT belongs 0.957; to CTGGGACGGC, 1.09.
Turning to CCATCGCTGG, the switch fluorescence ratio was determined as 1.29.
The same measure for AAGGAACACG: 1.01; for GCGAGTACAA: 1.06.
On to CAGCCAGTTA, for which the switch fluorescence ratio is 1.01.
To CGGTGATTAC belongs 1.3.
On to GGAGGCGCTG, for which the switch fluorescence ratio amounted to 0.988.
The same measure for GAAACCATGA: 1.05.
The same measure for CCGTTGATC: 1.18; for ATCCTTTGCG: 1.02.
The same measure for AGCGGACGGG: 1.01; for ATTAATTGAG: 1.02; for ATTTCAGACA: 0.946.
GACGCGAGGC: the switch fluorescence ratio was found to be 2.63.
Take CCTTTTTGA: the switch fluorescence ratio worked out at 0.989.
To GTCAAGGCTT belongs 1.14.
With TGTAGATGAC, the switch fluorescence ratio is 1.12.
The same measure for TTTATCGCGG: 1.01; for AATAGTATGT: 1.07.
For CCTTTTTTGC, the switch fluorescence ratio was 1.45.
The same measure for ATAGCAGCAA: 1.73; for CATTTTGGAT: 1.07; for CATGCATCAA: 1.01.
On to CCCGGTCTCG, for which the switch fluorescence ratio is 1.04.
For the sequence CATCTATTGG, the switch fluorescence ratio was 0.986.
For GTCTTCGGGG, the switch fluorescence ratio was determined as 1.07.
To GAATTAGC belongs 1; to AAACTTACCG, 1.14.
TGAGCACATC: the switch fluorescence ratio amounted to 1.39.
For the sequence TCCCTAGTCG, the switch fluorescence ratio was found to be 1.01.
As to ATATTTTACT, the switch fluorescence ratio is 1.02.
As to TAGCTTTATA, the switch fluorescence ratio was determined as 1.03.
Turning to CGTATGAATT, the switch fluorescence ratio worked out at 1.01.
The same measure for GAACTGGATT: 1.06; for CATGCCAAC: 1.01.
Consider AATCAATAAA, for which the switch fluorescence ratio came out at 1.
As to ACCTATACGT, the switch fluorescence ratio was 1.06.
As to CAACCGACCG, the switch fluorescence ratio worked out at 1.64.
The same measure for AAGGTATCAC: 1.01; for ATGGCAAAT: 1.02.
In the case of CATGCGTATG, the switch fluorescence ratio stood at 1.03.
Take TCACGTTCCG: the switch fluorescence ratio amounted to 1.03.
To GACACACGGT belongs 1.25; to CTAGGAAGCG, 1.01; to TGGCAAAAGG, 1.04.
To TCTCCAGCCT belongs 1.56; to TCAGGGCATT, 1.03; to TGGTGTAGA, 1.01.
To GGAGTGTCTC belongs 0.97; to AACGTTCAGC, 1.04; to TAAAATAGT, 0.984.
For CCGATGTTTC, the switch fluorescence ratio amounted to 3.26.
The same measure for ACTAGGTGGA: 1.04; for TAAAGAATT: 1.
To GCCAGTGTCG belongs 1.06.
TGGAGATATT: the switch fluorescence ratio came out at 0.979.
To TGCTGCTGC belongs 0.924.
For the sequence GATATATGGA, the switch fluorescence ratio is 1.01.
With TATTACTTAC, the switch fluorescence ratio was determined as 1.39.
Consider TTCATCTCTC, for which the switch fluorescence ratio stood at 1.01.
For GTATACTGAT, the switch fluorescence ratio stood at 0.993.
On to ACTTGCGTCC, for which the switch fluorescence ratio worked out at 1.08.
The same measure for CGTACAACGG: 0.983.
Turning to GTAGGATTCG, the switch fluorescence ratio came to 1.03.
With GTGGGCAGTT, the switch fluorescence ratio was 1.05.
To TGTCTACTAG belongs 1.04; to AAAGGGAGCT, 1.04; to CGTTAGGGCC, 1.
Turning to TAGGGGACCT, the switch fluorescence ratio is 1.29.
Consider GCGATGAAGT, for which the switch fluorescence ratio worked out at 0.991.
To AATAGTACAG belongs 1.06; to AACTACCGAG, 1.11.
To AAGCTGAAGG belongs 1.06; to TTACTGAGGA, 0.989.
The same measure for TAGTGGAGG: 1.04; for GTAATAGCTC: 1.1.
On to TGAGTACTAA, for which the switch fluorescence ratio was determined as 1.05.
On to TTTTACCTGA, for which the switch fluorescence ratio came out at 1.08.
Turning to TTCAGCTTAC, the switch fluorescence ratio was 5.15.
The same measure for ATGGAGTAA: 1.01; for TCAACGCCAA: 2.8.
To ACGGTCACCG belongs 0.969; to TTATAATTG, 1.
